Consider 1 molecule from the supplement of paper PMC8728848.

Test in all cases: glycan array binding signal (z-score within array); higher = stronger binding
Details in all cases: glycan notation: IUPAC condensed, linker removed; mutation: F63H

The target in assay [1] is Gal(b1-3)GlcNAc(b1-2)Man(a1-3)[Gal(b1-3)GlcNAc(b1-2)Man(a1-6)]Man(b1-4)GlcNAc(b1-4)GlcNAc. Put shortly:
(§1)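 The binding signal is a Z-score computed within each array and averaged over linkers. Arrays of the same protein sequence at different concentrations or buffers were also averaged together. Data originate from 3228 arrays in the Consortium for Functional Glycomics database, kept only where the protein sequence was available.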

Assay [2] has as its target Gal(b1-3)GlcNAc(b1-2)Man(a1-3)[Gal(b1-3)GlcNAc(b1-2)Man(a1-6)]Man(b1-4)GlcNAc(b1-4)[Fuc(a1-6)]GlcNAc. The procedure, abridged: as §1
Assay [3] has as its target Gal(b1-3)GlcNAc(b1-2)Man(a1-3)[GlcNAc(b1-4)][Gal(b1-3)GlcNAc(b1-2)Man(a1-6)]Man(b1-4)GlcNAc(b1-4)GlcNAc. The procedure, abridged: as §1
The target in assay [4] is Gal(b1-3)GlcNAc(b1-2)[Gal(b1-3)GlcNAc(b1-6)]Man(a1-6)[Gal(b1-3)GlcNAc(b1-2)Man(a1-3)]Man(b1-4)GlcNAc(b1-4)GlcNAc. Put shortly:
as §1

Assay [5] deals with Gal(b1-3)GlcNAc(b1-3)Gal(b1-3)GlcNAc. The procedure, abridged:
as §1

Assay [6] deals with Gal(b1-3)GlcNAc(b1-3)Gal(b1-4)Glc. Put shortly: as §1
Assay [7] has as its target Gal(b1-3)GlcNAc(b1-3)Gal(b1-4)GlcNAc. Put shortly:
as §1

Assay [8] has as its target Gal(b1-3)GlcNAc(b1-3)Gal(b1-4)GlcNAc(b1-2)Man(a1-3)[Gal(b1-3)GlcNAc(b1-3)Gal(b1-4)GlcNAc(b1-2)Man(a1-6)]Man(b1-4)GlcNAc(b1-4)GlcNAc. The procedure, abridged: as §1
Assay [9] has as its target Gal(b1-3)GlcNAc(b1-3)Gal(b1-4)GlcNAc(b1-2)[Gal(b1-3)GlcNAc(b1-3)Gal(b1-4)GlcNAc(b1-6)]Man(a1-6)[Gal(b1-3)GlcNAc(b1-3)Gal(b1-4)GlcNAc(b1-2)Man(a1-3)]Man(b1-4)GlcNAc(b1-4)[Fuc(a1-6)]GlcNAc. The procedure, abridged: as §1
For assay [10], the target named is Gal(b1-3)GlcNAc(b1-3)Gal(b1-4)GlcNAc(b1-3)Gal(b1-4)GlcNAc(b1-2)[Gal(b1-3)GlcNAc(b1-3)Gal(b1-4)GlcNAc(b1-3)Gal(b1-4)GlcNAc(b1-6)]Man(a1-6)[Gal(b1-3)GlcNAc(b1-3)Gal(b1-4)GlcNAc(b1-3)Gal(b1-4)GlcNAc(b1-2)Man(a1-3)]Man(b1-4)GlcNAc(b1-4)[Fuc(a1-6)]GlcNAc. Put shortly: as §1
The target in assay [11] is Gal(b1-3)GlcNAc(b1-3)Gal(b1-4)GlcNAc(b1-6)[Gal(b1-3)GlcNAc(b1-3)]Gal(b1-4)Glc. The procedure, abridged: as §1
Assay [12] concerns the target Gal(b1-3)GlcNAc(b1-3)Gal(b1-4)[Fuc(a1-3)]GlcNAc. Put shortly:
as §1

Assay [13] deals with Gal(b1-3)GlcNAc(b1-3)Gal(b1-4)[Fuc(a1-3)]GlcNAc(b1-6)[Gal(b1-3)GlcNAc(b1-3)]Gal(b1-4)Glc. The procedure, abridged: as §1
In assay [14] the target is Gal(b1-3)GlcNAc(b1-3)GalNAc. Put shortly:
as §1

For assay [15], the target named is Gal(b1-3)GlcNAc(b1-6)Gal(b1-4)GlcNAc. The procedure, abridged: as §1
Assay [16] has as its target Gal(b1-3)GlcNAc(b1-6)GalNAc. The procedure, abridged:
as §1

Assay [17] deals with Gal(b1-3)GlcNAc(b1-6)[Gal(b1-3)]GalNAc. Put shortly:
as §1

A further assay deals with Gal(b1-3)GlcNAc6S. Put shortly:
as §1

Assay [18] addresses Gal(b1-3)[Fuc(a1-4)]GlcNAc. Put shortly:
as §1

For assay [19], the target named is Gal(b1-3)[Fuc(a1-4)]GlcNAc(b1-2)Man. Put shortly:
as §1

Assay [20] concerns the target Gal(b1-3)[Fuc(a1-4)]GlcNAc(b1-2)Man(a1-3)[Gal(b1-3)[Fuc(a1-4)]GlcNAc(b1-2)Man(a1-6)]Man(b1-4)GlcNAc(b1-4)[Fuc(a1-6)]GlcNAc. The procedure, abridged: as §1
Assay [21] concerns the target Gal(b1-3)[Fuc(a1-4)]GlcNAc(b1-3)Gal(b1-3)[Fuc(a1-4)]GlcNAc. Put shortly: as §1

The list shows a part of the results.

B1: AAL (Agrocybe aegerita), Q6WY08 (protein)
chain: MQGVNIYNISAGTSVDLAAPVTTGDIVTFFSSALNLNAGAGNPNNTTLNLFAENGAYLLHIAHRLQENVIIFNSRQPDGPWLVEQRVSDVANQFAGIDGKAMVTVFDHGDKYQVVINEKTVIQYTKQISGLTLSLSYNATEETSIFSTVVEAVTYTGLALEHHHHHH
Take B1: the “glycan array binding signal (z-score)” value in assay [1] is -0.052; in assay [2], 0.392; in [3], -0.226; in assay [4], 0.041; in [5], -0.353; in assay [6], -0.312. The “glycan array binding signal (z-score)” value is -1.05 in [7]; 0.297 in assay [8]; 0.835 in assay [9]; 0.029 in assay [10]; -0.01 in assay [11]; -0.305 in assay [12]. Also, the “glycan array binding signal (z-score)” value in assay [13] is 0.216; in [14] it was -0.11; in assay [15] it was -0.72; in [16] it was 0.316; in assay [17] it was -0.137; with Gal(b1-3)GlcNAc6S, -0.136. The “glycan array binding signal (z-score)” value in assay [18] is -0.36; in assay [19], 0.665; in assay [20] it was -0.096; in [21] it was 0.303.
